Read counts are not given, so values of variants with three or more changes are uncertain.
B1: LINE1-full (parent)
chain: UACGUAGGUGGUUUUCCCCUGAUAGUGCUAAGGGGGCCUGGAAGUUUGGACUGGGCAGAGCUCAACACAGCGUGGCAAAGUGGCUGUGGCUAGACUGCCUCUCUGGAUUCCUCGUCACUCAGCAGGGCAUCUCUGAGAGAAAUGCC

Variants of: B1
Test: self-cleavage, relative activity (ratio to wild type); higher = more cleavage; in vitro, sequencing; the parent is a self-cleaving ribozyme

Variant | self-cleavage
U14G A65G A136G | 0.49
G35U A42U C90U | 0
C17G U20C G75C | 1.34
U13A U29A A140G U143A | 0.56
A59U U73C U132C | 1.55
U47C U52A U85C | 0.37
A30G U62A A65G A94G | 0
U12C C19U A69U G82A U85C A136U | 0.08
G55U U62C U102C A117G G126A | 0.02
A30U A107G U108A A121G U132C | 0
U15C C28U A31G | 0.76
U14C A78G A140G | 0.86
A77G A78G G86A U96G | 0.09
A31G U46C A57G | 0.41
U20A U112A G135A | 1.47
A24U U62C U108C U115C | 0
G35A A65G A107G U130C A142G | 0
A30C U62C U85G U134C U143A | 0
U62C U96A A140G | 0.05
U46C A92G G93A U119C G144A | 0.08
U20C A67G U102C A124G | 0
A78U U96A A140G | 0.11
U1C A6G U52A U62A A67C | 0.21
U15C A50U U85C A124U | 0

Variant | self-cleavage
A77G A94G U112C G127A | 0.23
A57U A117G A136G | 0.19
U1C C38U U119C | 0.98
A78U U87A U109C | 0.11
U1C A42G U62C A65G | 0
U20C G86A U119A | 0.11
G36A A67G U96C | 0.04
U104A U108C U130C A141G | 1.71
G4A A138U A142G U143A | 0.75
A24G U85A U130C U132C | 0.19
A77G A92U U100A U104C | 0.33
A2G U14C A59G A140U | 0.3
A24G U46C G75U C76A | 0.85
U13C U119C A136C | 2.98
U29C A43G U87G A141G | 0.43
U46C G53U A77G A78G U81C U134C | 0.84
U45C U47C U112C | 1.84
A6U C19U A78G | 1.55
U12G U73A A77U G88A U100C U104C U134C | 0
U1C U12C A64G | 0.34
G89A U134G A138G | 0
U20G U100A A107U | 0.65
U29C G36U A42G A77U | 1
U26C C37G A77U A107G C146U | 0.88

Variant | self-cleavage
A50G U100C A124U U132C | 2.3
C17A A57G G105A A124C U143C | 1.57
U13C U20A U26C U52A C71U U96A A107G | 0.21
A31U A43G U45G G88A | 0.03
U46C A78G C120U | 2.09
A94G A129G A138G | 0.81
U39A U47A A138G | 1.17
A2G U13C U130A U132A | 0.63
U23C U47A A65G A107G | 0.16
A77U U96A A124G | 0.07
U115A A129U A140G | 1.96
U46C U87C A129U A142G | 0
U14A A64G U100A U112A | 0.17
A6U A22U C71A | 0.3
G58A U62C A136G | 0
U39C A138G A140G | 0.97
U15C U46C U73C G75A U96C | 0.23
U39C A69G C128U | 0.43
U9C G25A U26C U46G U52A U85C U100A A107G U115A | 0
A67G U109A A140G | 0.29
U26C U46C U85C | 0.21
U1G U46C G54A | 1.2
A24G U26C A59G A124U | 0
A57U A107G A117G U130C | 0

Variant | self-cleavage
U20C G75A A124G U130C | 1.2
U47C A129U A141G | 1.69
C19A C103A U130A | 2.48
C76U U115C A124G | 1.94
U26A A64C A141G | 0.11
A50G G53U A121U | 0.64
A69U U73C U108G | 0
U15C A43G U109A | 1.17
A2G U14A U15C A69U A142G | 0.29
U112A A124U A138G | 1.57
U1C A142G U143C | 0.95
U46A U47A U91C C101U | 0.66
A42G A57G U62C | 0
G74A U134C A142G | 0.97
U45C U47A A64U | 0.34
U46A C111U U119A A140G | 1.32
A42G G53A U108A G144U | 0.9
U9C A30G A107G | 0
U39A A43G U119A A142G | 0.39
U47A U109A U112C | 1.41
A77U A141G U143C | 0.61
U13C A107C U109A | 1.71
C19U A43G A94G A140G | 0
A22G A57U U100C | 0.5

Variant | self-cleavage
G4A U13C U23A A129G | 1.17
C3U U119C A129G | 0
A2U A22U A124G | 0.46
A43G U108C A141G | 3
U39A A79G G89U C98U U134C | 0.02
A67U A69U C113U | 0.02
U39C U45C A65G C90U U115A | 0
A24U A42G U87C U132C A138G | 0.46
A43G A78G A141G | 1.2
U13C U45C U52A A65U C113U A136G | 0.13
A6G A78G G114A | 0.5
U108C A138U A142G | 1.45
U47C U104C A136U | 1.67
U45C U73C A141G | 1.81
A65G A94U U112C | 0
U13C U81A U112C | 1.69
G49A A59G U102C U115C | 0.07
G4A U39C U52A | 0.74
C51U G75C A79G U109A U132A | 0.48
A31C A140G A142C | 0.66
U52A A94U A136G | 0.46
C16U U23A U85C U112C | 0.12
U20A A31U C118G | 1.03
A64U U73G A136G | 0.55

Variant | self-cleavage
G48U U87A A107G | 0.04
A42G U91A U96A | 0.14
U13C U45C G70A | 0.14
U9A A59G C84A C103U | 0.09
U12C U23C U26A A64G U87A | 0.77
U47A A94G U96C U130C A140G | 0.24
U14C G53A U85C A136G U143A | 0.18
U15A U62A A78U U91C | 0.06
A64U U134C A142G | 0.79
A22G U96A A138G | 0.3
U9C G21U G35U | 1.05
U15C U20C A30G A78G | 0.81
A67G U100C U132C | 0.97
U9C U15A A136C | 0.42
U12A A79G U115C | 2.68
A6G U20C A67G A107G A142G | 1.84
U20C U108C U130C | 1.23
G4A G32A A42G U46C U130C | 1.4
U52C A57G U87A G88U | 0.04
A30G C37A A59U A129U | 0.24
U1G U112C A136G | 0.99
U14C U20C U132C | 1.39
U20A U62C A65G A94U A117G | 0
A50G A117G U143A | 0.97

Variant | self-cleavage
U12G G58U U102A C110A U115C A124G | 0.1
U62C A124U A142G | 0.1
G55A A57G U85A U132C | 0
U9C C71U A117G | 0.96
U12G A59G U73A | 0.27
U73A A77C U109C | 0.92
U14C C19U A24G A77U U96C | 0.11
A2G U62A U143C | 0
U14C U104C A129U | 2.51
A43G A117U U143C | 1.07
U15C A57C A79G U85A U119A | 0.19
U13C C19U G114A U132C | 1.46
U1C A107U U130C | 0.82
U45C U130C U143C | 0.97
U5C A69U A79G | 0.06
U119A U134C U143C | 1.2
U20G A57U U87A U112C U119C | 0
A42G U104C U108C | 1.31
U14C A64G A77G A78G A107U A140C | 0
A50G U81A U102C U112C A140G | 2.53
U45C A140U A141C | 0.85
A64G A67U U143A | 0.05
U29C U45C A140C | 1.23
